Test results taken from the supplement of paper PMC3334620.
Whole data set: some 33,000 sequences, median “E-score (-0.5 to 0.5)” near -0.041, cut for the highest 2% near 0.37. Some of the results follow.

The sequences below were run against T1, Ecm22 (UniProt Q05958) (assay: PBM E-score (8-mer binding enrichment) (E-score (-0.5 to 0.5)); higher = stronger / more preferred TF binding; most listed sequences are background and not binding sites). Settings: protein concentration: 200 nM; construct: GST-full length.
T1 sequence: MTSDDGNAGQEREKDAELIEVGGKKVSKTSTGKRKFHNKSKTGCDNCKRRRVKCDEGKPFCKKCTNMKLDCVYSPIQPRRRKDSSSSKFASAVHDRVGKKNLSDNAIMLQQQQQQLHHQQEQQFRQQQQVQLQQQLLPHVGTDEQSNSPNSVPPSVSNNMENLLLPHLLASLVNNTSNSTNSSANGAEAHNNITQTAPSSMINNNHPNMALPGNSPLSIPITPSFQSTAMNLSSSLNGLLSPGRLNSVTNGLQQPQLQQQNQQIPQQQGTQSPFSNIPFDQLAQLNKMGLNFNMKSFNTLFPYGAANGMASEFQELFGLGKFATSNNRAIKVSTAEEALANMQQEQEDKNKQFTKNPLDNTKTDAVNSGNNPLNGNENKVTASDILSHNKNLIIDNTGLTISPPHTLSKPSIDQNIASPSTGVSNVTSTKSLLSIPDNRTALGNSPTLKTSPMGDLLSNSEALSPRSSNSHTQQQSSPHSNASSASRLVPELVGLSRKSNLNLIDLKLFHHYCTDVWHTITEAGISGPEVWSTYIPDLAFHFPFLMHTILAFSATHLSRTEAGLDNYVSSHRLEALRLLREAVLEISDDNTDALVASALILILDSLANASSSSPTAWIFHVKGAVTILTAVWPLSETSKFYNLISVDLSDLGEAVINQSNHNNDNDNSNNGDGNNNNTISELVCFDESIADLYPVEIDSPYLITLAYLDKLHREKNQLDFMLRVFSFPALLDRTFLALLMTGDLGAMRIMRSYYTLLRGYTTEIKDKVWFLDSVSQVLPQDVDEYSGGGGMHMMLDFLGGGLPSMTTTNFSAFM
How it was run: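 GST-tagged yeast TFs (full-length or DNA-binding domain) were made by PURExpress in vitro transcription/translation and applied at about 100-200 nM to universal all-10-mer Agilent arrays. The arrays were made double-stranded by primer extension, on fresh or once-stripped slides. Bound protein was detected with fluorescent anti-GST, and scans were normalised with masliner. Each ungapped eight-base word, pooled with its reverse complement, received an E-score (modified Wilcoxon-Mann-Whitney statistic) from the Universal PBM Analysis Suite.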

| Sequence | PBM E-score |
| --- | --- |
| TAGAGCAA | -0.188 |
| ATGGCATG | 0.116 |
| AGCTAAAA | -0.0878 |
| GACCCTAC | -0.111 |
| GGTCGAAA | -0.0972 |
| AAGGCTGT | -0.199 |
| CGCGGTAA | 0.191 |
| AGGGCCTC | -0.0981 |
| ATAGCGAT | 0.0467 |
| GGTACTCA | -0.0835 |
| GGTTCGTA | 0.443 |
| CCCTTCAC | -0.377 |
| CTTTTGTC | -0.0686 |
| TATCACAA | -0.00627 |
| GCACCATA | -0.068 |
| CTGCCGTA | 0.274 |
| GCCGAAAA | 0.174 |
| CTGTACGC | 0.314 |
| CTAGTGCA | -0.109 |
| AGTCAACT | -0.0186 |
| ACAAATTC | 0.0192 |
| CAATCGGC | -0.215 |
| CAGTATTC | 0.122 |
| CACAATAA | -0.132 |
| CCAAGCTC | 0.0493 |

| Sequence | PBM E-score |
| --- | --- |
| CCTGACAG | -0.217 |
| GCCGCACC | 0.032 |
| GCCAAACA | -0.141 |
| TGTGCCAA | -0.153 |
| GCTCGGCC | 0.0242 |
| GCAAAGCA | -0.0481 |
| CTATCGAC | -0.107 |
| AATCGGGA | -0.141 |
| CTCCCGTC | 0.121 |
| ACAGTACT | 0.0175 |
| AGGGCTCA | -0.212 |
| AAGCTTGT | 0.0175 |
| CCTGATCC | 0.025 |
| CGAGCTTA | 0.154 |
| GCCGTCAA | -0.126 |
| AAGGTTTG | -0.00626 |
| AGCGACAA | 0.139 |
| GTTTGGCA | 0.111 |
| CTTCTGCC | 0.0205 |
| GACGGCTC | -0.00355 |
| CTGGAGCA | -0.334 |
| CCTATCTC | -0.117 |
| TATGGCAA | -0.0965 |
| AAATACCC | -0.06 |
| ATGCCTGC | -0.144 |

| Sequence | PBM E-score |
| --- | --- |
| CTACGTAA | 0.156 |
| ATGGAGGC | -0.128 |
| CATACAGA | -0.144 |
| AAGTTCGA | 0.0267 |
| CGGTAATC | 0.0961 |
| CTATCCTA | -0.138 |
| CTCCACAC | -0.202 |
| ATGGTTAG | -0.0935 |
| AGCATCCA | -0.245 |
| GCAAATCC | 0.0644 |
| GGGGAGCA | -0.0566 |
| CTGCAAAG | -0.0894 |
| AACCGGAG | -0.0216 |
| GCCGCCAC | -0.297 |
| CTGCTTAA | -0.177 |
| CCAGTTAG | -0.265 |
| CTGCCCAG | -0.267 |
| CAGCTAAG | -0.264 |
| ACAACGTG | -0.189 |
| CTGAAGTA | -0.134 |
| CGGCAACG | 0.266 |
| GGCTAGAC | -0.215 |
| CCATTGCA | -0.0823 |
| ACTTACTG | 0.0213 |
| CCGTAGCC | 0.0617 |

| Sequence | PBM E-score |
| --- | --- |
| ACCGACCG | 0.278 |
| AGTTCTAC | -0.00157 |
| CAATTGAC | -0.0565 |
| CTCGAACA | -0.0783 |
| CCACCGCC | -0.0914 |
| GAGACTCA | -0.0576 |
| ATTTGGCA | 0.00392 |
| GGCAACCA | -0.0847 |
| AGATGAAG | -0.13 |
| GCCTGTTA | -0.313 |
| ACTCATGG | -0.107 |
| AGGGGCTG | -0.103 |
| ATTTCTTC | 0.109 |
| ATAAATCA | 0.0524 |
| AGTGGAGC | -0.061 |
| CCGGTGAA | 0.0859 |
| TATGCCAA | -0.123 |
| AGGTGGCA | -0.149 |
| CGGAGCTA | 0.12 |
| CTACGGAA | 0.0649 |
| AACTTGAC | -0.151 |
| GCGCCGAC | -0.219 |
| CCCTGCAC | -0.239 |
| GCATTAGA | -0.155 |
| GGATACCA | -0.0853 |

| Sequence | PBM E-score |
| --- | --- |
| GAGAGTAC | -0.0261 |
| GATACCGA | -0.0344 |
| AGGGAGTC | -0.28 |
| AAGGTCGT | 0.294 |
| AAAGCCTC | 0.0517 |
| CGTTCAAG | 0.335 |
| GGGCTGGA | -0.17 |
| ACAGTGGC | -0.134 |
| GCAGAGGA | 0.0203 |
| CAGTAACG | 0.0795 |
| TACCTCGA | 0.148 |
| AACACAGT | -0.00107 |
| TCCCATAA | -0.212 |
| CCACTTAA | -0.157 |
| CCGCTTCC | -0.0138 |
| ATTTACCA | -0.0924 |
| ACAGTTGC | -0.163 |
| AGGTGCTC | -0.233 |
| CATCTACG | 0.0734 |
| AAGAGATC | 0.0711 |
| AAACTCGC | 0.215 |
| AGCCCCAC | -0.079 |
| ATACCCTA | 0.0675 |
| CGTTGCAA | 0.21 |
| AATCTCTA | 0.0668 |

| Sequence | PBM E-score |
| --- | --- |
| GCTAAGAC | 0.00642 |
| ATAAACGC | 0.192 |
| CCGTTGGC | -0.171 |
| CAAGCTCG | 0.197 |
| CTGTATCC | -0.126 |
| CACCGCCG | -0.0393 |
| CAATATGA | 0.146 |
| CCGGAGTC | -0.0329 |
| GCTATAGA | -0.202 |
| CGGACCTC | 0.166 |
| GATGCGGC | -0.228 |
| AGTTTAAC | 0.09 |
| CGCTTGGC | 0.0372 |
| CGAGACTA | 0.22 |
| AGTAGACC | 0.0733 |
| CACCCCTA | -0.15 |
| CTGCCTGC | -0.232 |
| GTAGCCCA | -0.132 |
| GCAGGGGA | -0.174 |
| CGGAACGC | 0.295 |
| AGCCTGGC | -0.142 |
| CAGGCCAC | -0.18 |
| AGTAGATG | -0.286 |
| CGGGCCCG | 0.2 |
| CCGCTAAG | 0.0409 |

| Sequence | PBM E-score |
| --- | --- |
| AGCTCCGA | 0.0611 |
| CAGACGCG | -0.112 |
| ACCGGGAA | 0.106 |
| CTATTCAA | -0.102 |
| AGGGGTAC | 0.00941 |
| GTGACACA | -0.102 |
| GGGAGTAA | -0.144 |
| ACTCATTG | 0.0195 |
| AGCTTGGC | -0.133 |
| AGCACGCG | -0.0107 |
| AGAGCTGG | -0.179 |
| GGGGCCAA | -0.0478 |
| GACTGTAA | 0.0156 |
| GGAGCCCA | -0.332 |
| GCCTTTGA | -0.214 |
| GTAGTTAA | 0.0572 |
| ACTTAGGA | 0.00223 |
| CTCATGTC | -0.059 |
| GCAGGTGA | -0.189 |
| AACGGCTT | 0.0968 |
| AGCCATGG | -0.183 |
| TACGGCTA | 0.247 |
